This is one part of the list. Many values rest on one well or one pass, so single values are uncertain.
Experiments:
Experiment in all cases: cell count relative to DMSO control; melanoma cells; higher = more viable cells
Conditions in all cases: library dose: standard library concentration; 72 h; first compound 2 µM
G361 = system: G361
IPC-298 = system: IPC-298
IST-MEL1 = system: IST-MEL1
LB2518-MEL = system: LB2518-MEL
LOXIMVI = system: LOXIMVI
MEL-HO = system: MEL-HO
MZ2-MEL = system: MZ2-MEL
MeWo = system: MeWo
RPMI7951 = system: RPMI7951
RVH-421 = system: RVH-421
SkMel28 = system: SkMel28
SkMel2 = system: SkMel2
SkMel30 = system: SkMel30
SkMel5 = system: SkMel5
UACC257 = system: UACC257
UACC62 = system: UACC62
WM115 = system: WM115
WM1716 = system: WM1716
WM1745 = system: WM1745
WM3526 = system: WM3526
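Note: cells treated in 1,536-well plates, then fixed and DAPI-stained, with nuclei counted from automated high-throughput microscope images.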

Structure (SMILES)	cell count (G361) [%]	cell count (IPC-298) [%]	cell count (IST-MEL1) [%]	cell count (LB2518-MEL) [%]	cell count (LOXIMVI) [%]	cell count (MEL-HO) [%]	cell count (MZ2-MEL) [%]	cell count (MeWo) [%]	cell count (RPMI7951) [%]	cell count (RVH-421) [%]	cell count (SkMel28) [%]	cell count (SkMel2) [%]	cell count (SkMel30) [%]	cell count (SkMel5) [%]	cell count (UACC257) [%]	cell count (UACC62) [%]	cell count (WM115) [%]	cell count (WM1716) [%]	cell count (WM1745) [%]	cell count (WM3526) [%]
CCCCCCCCCCCCCCCCCCOP(=O)([O-])OC1CC[N+](C)(C)CC1 [Perifosine] + CC1(C)CCC(c2ccc(Cl)cc2)=C(CN2CCN(c3ccc(C(=O)NS(=O)(=O)c4ccc(N[C@H](CCN5CCOCC5)CSc5ccccc5)c(S(=O)(=O)C(F)(F)F)c4)cc3)CC2)C1 [ABT263] (partner dose 2 µM)	55.2	84.1	49.2	53	54.8	67.6	92.9	87.5	8.34	50.6	27.4	49.7	52.7	74.3	36.5	67.8	77.1	63.4	3.7	86.5
CCCCCCCCCCCCCCCCCCOP(=O)([O-])OC1CC[N+](C)(C)CC1 [Perifosine] + Cn1c(Nc2ccc(C(F)(F)F)cc2)nc2cc(Oc3ccnc(-c4ncc(C(F)(F)F)[nH]4)c3)ccc21 [CHIR265] (partner dose 0.4 µM)	26.5	40.6	72.6	38.5	58.7	66.2	63.2	63.7	16.7	47.5	31.5	50.8	56.4	28.1	72.1	47.8	30.8	64.5	49.7	38.1
CCCCCCCCCCCCCCCCCCOP(=O)([O-])OC1CC[N+](C)(C)CC1 [Perifosine] + CCCS(=O)(=O)Nc1ccc(F)c(C(=O)c2c[nH]c3ncc(Cl)cc23)c1F [PLX4720] (partner dose 0.4 µM)	82.8	78.8	102	121	94.5	113	85.3	94.7	34.6	77.1	56.7	113	82.6	89.7	113	47.4	107	81.7	103	70.1
C[C@@H](N)c1ccc(C(=O)Nc2ccnc3[nH]ccc23)cc1 + CC1(C)NC(=O)N(c2ccc([N+](=O)[O-])c(C(F)(F)F)c2)C1=O [nilutamide] (partner dose 5 µM)	102	92.8	99.9	114	70.8	83.5	62.3	76.4	52.3	45.8	48.4	103	93.3	68.2	64.3	79.2	85.9	47.5	55.9	74
Cn1sc(=O)n(Cc2ccccc2)c1=O + CC(C)C[C@H](NC(=O)[C@H](Cc1ccccc1)NC(=O)c1cnccn1)B(O)O [Bortezomib] (partner dose 0.005 µM)	2.11	8.92	21.3	1.83	20.7	36.7	5.37	19	4.06	33	23.2	47.6	34	34.1	86.3	58.9	47.5	12.6	15.8	26.2
Cn1sc(=O)n(Cc2ccccc2)c1=O + C[C@@H](Oc1cc(-c2cnn(C3CCNCC3)c2)cnc1N)c1c(Cl)ccc(F)c1Cl [Crizotinib] (partner dose 1 µM)	87.7	93.8	99.1	67.8	164	86.8	99.7	85.8	76.6	103	84.1	93.6	80.5	67.9	101	75.2	50.1	67	64.4	75.5
C[C@@H](N)c1ccc(C(=O)Nc2ccnc3[nH]ccc23)cc1 + CO[C@H]1C[C@@H]2CC[C@@H](C)[C@@](O)(O2)C(=O)C(=O)N2CCCC[C@H]2C(=O)O[C@H]([C@H](C)C[C@@H]2CC[C@@H](OCCO)[C@H](OC)C2)CC(=O)[C@H](C)/C=C(\C)[C@@H](O)[C@@H](OC)C(=O)[C@H](C)C[C@H](C)/C=C/C=C/C=C/1C [everolimus] (partner dose 0.1 µM)	39	65.3	73.4	83.8	67.7	34.4	28.2	66	51.3	51.9	38.9	80.1	57.3	42.2	66.6	53.9	62.8	46.6	55.3	57.4
Cn1sc(=O)n(Cc2ccccc2)c1=O + CN(c1ncccc1CNc1nc(Nc2ccc3c(c2)CC(=O)N3)ncc1C(F)(F)F)S(C)(=O)=O [PF562271] (partner dose 0.4 µM)	95.3	101	111	98.6	112	84.4	108	102	63	77.1	87.1	86.5	93.6	79.7	104	81.2	66.4	83.9	78.7	91.3
CCCCCCCCCCCCCCCCCCOP(=O)([O-])OC1CC[N+](C)(C)CC1 [Perifosine] + CS(=O)(=O)CCNCc1ccc(-c2ccc3ncnc(Nc4ccc(OCc5cccc(F)c5)c(Cl)c4)c3c2)o1 [lapatinib] (partner dose 4 µM)	80.9	79.9	91.3	128	77.1	87.1	75.2	88.4	63.2	92	79.1	104	93.2	76.3	114	56.6	85.6	82.2	96.2	99.4
C[C@@H](N)c1ccc(C(=O)Nc2ccnc3[nH]ccc23)cc1 + NC1(c2ccc(-c3nc4ccn5c(=O)[nH]nc5c4cc3-c3ccccc3)cc2)CCC1 [MK2206] (partner dose 2 µM)	76.6	95	72	100	114	53.2	57.5	63.6	51.2	55.3	67.4	95.5	87.7	46.2	52.2	66.6	72.2	54.2	52.5	67.9
Cn1sc(=O)n(Cc2ccccc2)c1=O + CCCS(=O)(=O)Nc1ccc(F)c(C(=O)c2c[nH]c3ncc(Cl)cc23)c1F [PLX4720] (partner dose 0.4 µM)	67	74.8	104	111	142	93.2	73.3	102	112	76.3	51	110	90.3	72.8	118	83.2	88.3	63	104	68.9
CCCCCCCCCCCCCCCCCCOP(=O)([O-])OC1CC[N+](C)(C)CC1 [Perifosine] + O=C(Nc1cccc(Cl)c1)Nc1ncc(CCNc2ncnc3ccsc23)s1 [SNS314] (partner dose 0.004 µM)	61.7	83.7	54.7	79.9	58.1	76.2	79.9	59	31.2	83.2	50.6	82.4	92.7	87.1	82.6	77	41.6	44.8	49	74.4
CCCCCCCCCCCCCCCCCCOP(=O)([O-])OC1CC[N+](C)(C)CC1 [Perifosine] + CC(C)(C)c1cnc(CSc2cnc(NC(=O)C3CCNCC3)s2)o1 [SNS-032] (partner dose 0.05 µM)	77.1	94.1	80.7	65.3	63.3	91.9	87	88.4	10.3	83.8	40.9	53.2	80.9	78.2	96.4	64.2	58.2	44.9	60.7	92.1
CCCCCCCCCCCCCCCCCCOP(=O)([O-])OC1CC[N+](C)(C)CC1 [Perifosine] + C=CCNC1=C2C[C@@H](C)C[C@H](OC)[C@H](O)[C@@H](C)/C=C(\C)[C@H](OC(N)=O)[C@@H](OC)/C=C\C=C(/C)C(=O)NC(=CC1=O)C2=O [Tanespimycin] (partner dose 0.01 µM)	78.7	95.4	68.9	82.5	88.8	89	125	76	3.49	68.7	55.2	92.2	80.5	68.6	81.2	56.6	24.5	73.7	60.2	91.6
CCCCCCCCCCCCCCCCCCOP(=O)([O-])OC1CC[N+](C)(C)CC1 [Perifosine] + C[C@@H](N)c1ccc(C(=O)Nc2ccnc3[nH]ccc23)cc1 [RKI983] (partner dose 2 µM)	88.2	87.7	92.1	125	71.2	52	59	92.9	28.1	46	61.5	87.8	78.9	66.7	80	58.6	105	51.7	41.4	79.7
CCCCCCCCCCCCCCCCCCOP(=O)([O-])OC1CC[N+](C)(C)CC1 [Perifosine] + CN1CCN(c2ccc3nc(-c4c(N)c5c(F)cccc5[nH]c4=O)[nH]c3c2)CC1 [Dovitinib] (partner dose 0.5 µM)	53.2	63.3	76	58.9	91.4	70.3	37.5	60.2	10.8	65.6	45.2	55.9	87	62.7	78.7	77.7	76.4	72.3	47.5	73.8
C[C@@H](N)c1ccc(C(=O)Nc2ccnc3[nH]ccc23)cc1 + COc1ccc(C2=N[C@@H](c3ccc(Cl)cc3)[C@@H](c3ccc(Cl)cc3)N2C(=O)N2CCNC(=O)C2)c(OC(C)C)c1 [Nutlin-3] (partner dose 0.5 µM)	69.1	103	83.4	109	68.9	57.1	57.1	83.3	65.9	53.6	59	100	102	56	55.3	47.6	97.9	48.7	38.4	107
Cn1sc(=O)n(Cc2ccccc2)c1=O + NC1(c2ccc(-c3nc4ccn5c(=O)[nH]nc5c4cc3-c3ccccc3)cc2)CCC1 [MK2206] (partner dose 2 µM)	81.5	83.6	84.6	80	84.1	75.1	92.5	79.8	79.5	76	63.3	73.4	88.2	92.8	88.1	69.6	68.7	101	92.3	71.2
CCCCCCCCCCCCCCCCCCOP(=O)([O-])OC1CC[N+](C)(C)CC1 [Perifosine] + NC(=O)c1ccc(N(C(N)=O)c2c(F)cccc2F)nc1-c1ccc(F)cc1F [VX702] (partner dose 2 µM)	89.2	117	12.8	84.9	77.8	98	92.8	91	32.9	130	81.8	94.8	82	104	93.1	76.5	88.6	113	74.6	99.5

Source: the supplement of paper PMC4604168 (melanoma cell lines)
